Reference: the supplement of paper PMC11417369
Some of the results follow.

The sequences below were run on PF3D7_0420300 AP2 domain 1 (GST-tagged) (assay: gcPBM binding intensity (ln(normalized median fluorescence intensity)); higher = stronger DNA binding).
Procedure, shortened: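 The highest Masliner-normalised natural-log median intensity across replicate spots of either probe orientation is reported as binding intensity. GST-tagged P. falciparum DNA-binding domains expressed in E. coli were applied for 1 h to an Agilent 4 × 180k array of primer-extended double-stranded 36-bp intergenic genomic probes plus negative controls, and bound protein was detected with Alexa488 anti-GST antibody and scanned at 488 nm.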
For “TGATAAAATATTAAATTATTTCTTTATTTAAAGATT [CACACA_negctrl_site370]”, the “gcPBM binding intensity (ln)” value was 8.66.
For “TCTTACAAGGAACTAATAAAATTGTAGTTTGTATTT [CACACA_negctrl_site386]”, the “gcPBM binding intensity (ln)” value was 9.1.
In the case of “TTATTATTTATTTTTTATTATTATTATTTTTTTTTA [XGTACX_negctrl_site76]”, the “gcPBM binding intensity (ln)” value is reported as 9.21.
In the case of “AAATCTTAATAAAGTTGTACATAATTATGTTTAATA [XGTACX_site3348]”, the “gcPBM binding intensity (ln)” value is reported as 9.08.
In the case of “AAGTATTTCCTAAAATGTACATATAAATAAGTATAT [XGTACX_site1282]”, the “gcPBM binding intensity (ln)” value is reported as 9.19.
In the case of “TTAAAATTAAAATACGTACACACCTTATCTTTTTGG [CACACA_site7982]”, the “gcPBM binding intensity (ln)” value is reported as 9.27.
In the case of “GAAAAGATTTAAAAATGTACAAAAGAAAAAAAAAAA [XGTACX_site6916]”, the “gcPBM binding intensity (ln)” value is reported as 9.09.
With “TATATTTATTTATATGTATGCATGTCTGTATATGCT [TGCATGCA_site339]” the “gcPBM binding intensity (ln)” value was 9.13.
In the case of “CAAAGATAAAATGATGCACACAAAAGGGTGTAATAT [CACACA_site8499]”, the “gcPBM binding intensity (ln)” value is reported as 9.73.
In the case of “AAAGTACAATCATAATCACACGTGTCTATTATATAC [CACACA_site8103]”, the “gcPBM binding intensity (ln)” value is reported as 9.5.
In the case of “ACATGGTTTACACGTGCATGTGGATGACTGGACATT [TGCATGCA_site640]”, the “gcPBM binding intensity (ln)” value is reported as 9.27.
“AATACGACAAACAAATGTACAAATAAATATTCGCGT [XGTACX_site6427]” was tested, and the “gcPBM binding intensity (ln)” value was 9.67.
In the case of “TTTTCTTTTAATATTTTTAATAATTATATTTTGAAA [XGTACX_negctrl_site495]”, the “gcPBM binding intensity (ln)” value is reported as 8.78.
With “TGAGAAAATTAAAAGGTGCTCAGAAATTTTATATTA [GTGCAC_site9954]” the “gcPBM binding intensity (ln)” value was 9.08.
“AAATTACTAATGTGCACACATACTAACGTTTAAATA [CACACA_site3572]” was tested, and the “gcPBM binding intensity (ln)” value was 9.5.
AAAAATGTAAAGTGCGTGCACAAAATATTTGGAAAA was tested, and the “gcPBM binding intensity (ln)” value was 9.27.
With “TAAAATTTAAAATATACACACAAAAAGTTATTACAA [CACACA_site4080]” the “gcPBM binding intensity (ln)” value was 9.49.
With “AAATTATTATGAAATGGAAAATGCATAAATTGTTTT [XGTACX_negctrl_site206]” the “gcPBM binding intensity (ln)” value was 9.19.
For “ATTAAATAATAATAATGTACGTATTATATTAATACA [XGTACX_site5439]”, the “gcPBM binding intensity (ln)” value was 9.13.
“ATTCTTTACTCATAAAATTATATTATATAAACTTTT [XGTACX_negctrl_site554]” was tested, and the “gcPBM binding intensity (ln)” value was 9.19.
“CTCTTTAAAAATATGGGTACAAAAAAAAAAAAAATA [XGTACX_site6185]” was tested, and the “gcPBM binding intensity (ln)” value was 9.02.
With “AAAACAGTGACAACTCGTACTTATATTTTTTTTTGT [XGTACX_site4968]” the “gcPBM binding intensity (ln)” value was 9.29.
With “AGGCCCTATGTTGTTACACACATAGAATGATACATC [CACACA_site1266]” the “gcPBM binding intensity (ln)” value was 9.46.
In the case of “GAATAAATAAATAAATGTACATATATATTTATTTAT [XGTACX_site243]”, the “gcPBM binding intensity (ln)” value is reported as 9.06.
In the case of “ATATGTATTTATATATGTTTGAATTTTTTTTTTTTT [CACACA_negctrl_site5]”, the “gcPBM binding intensity (ln)” value is reported as 9.19.
For “GTTCGAAGTATAATTTGTACATATAAAATGGTTCCC [XGTACX_site382]”, the “gcPBM binding intensity (ln)” value was 9.08.
In the case of “ATTTGATCAACAAAACGTACACATATTTTCATGTGT [XGTACX_site447]”, the “gcPBM binding intensity (ln)” value is reported as 9.35.
“CACATATAGTTATATGCACACATCTTACACATATAT [CACACA_site3692]” was tested, and the “gcPBM binding intensity (ln)” value was 9.63.
For “TATCTGTATTTATATACACACATATTCTTTTTACAC [CACACA_site4798]”, the “gcPBM binding intensity (ln)” value was 9.8.
In the case of “AAAATCACAAAACACACACACACAAAAAAAAAAAAA [CACACA_site1443]”, the “gcPBM binding intensity (ln)” value is reported as 9.81.
For “AAAAAAGTAAAAAAAGCACACACGAAAAAAAATAAA [CACACA_site2233]”, the “gcPBM binding intensity (ln)” value was 9.89.
“ATGGTGCAACATTATGCACACCGTTAAATAACTAAT [CACACA_site9280]” was tested, and the “gcPBM binding intensity (ln)” value was 9.18.
“GTTTGAAGAACTATAAATGTATAAATAAAAGTTTAG [TGCATGCA_negctrl_site222]” was tested, and the “gcPBM binding intensity (ln)” value was 8.97.
For “CATGGGCAAATATTCTCACACATAAACATAAACATA [CACACA_site4597]”, the “gcPBM binding intensity (ln)” value was 9.17.
“GGGAATTATGAAAAAAGTACAGAACAAAAGTAAAAG [XGTACX_site2861]” was tested, and the “gcPBM binding intensity (ln)” value was 9.49.
With “ATATAGTAAAATTATACACACATGAATTTTCCCATG [CACACA_site1770]” the “gcPBM binding intensity (ln)” value was 9.54.
In the case of “TTTTTTTTTTTTTTTTGTACTCATAAAAATATATTA [XGTACX_site3458]”, the “gcPBM binding intensity (ln)” value is reported as 8.48.
“TACAAAAATGAAAAAAGTACATATCATTTAATATAA [XGTACX_site8066]” was tested, and the “gcPBM binding intensity (ln)” value was 9.2.
In the case of “ATTACATGATATATCACACACACATATAAATATATA [CACACA_site2830]”, the “gcPBM binding intensity (ln)” value is reported as 9.95.
With “CATATATATATATATACACACACACCGTCCGTGTTA [CACACA_site8975]” the “gcPBM binding intensity (ln)” value was 9.7.
With “TAAGTCGCCAAAAGGTGTACACATAATGCATTATCA [XGTACX_site8852]” the “gcPBM binding intensity (ln)” value was 9.23.
“AGTATAGTTATAAATTGTACATATTATTTATTTTAT [XGTACX_site949]” was tested, and the “gcPBM binding intensity (ln)” value was 9.29.
For “AATCATTTATGGAAAGCATGCTAAATTAGAGTATAC [TGCATGCA_site172]”, the “gcPBM binding intensity (ln)” value was 9.27.
With “TAATATCATTTAGACACACACTCTTACAATCTGTAA [CACACA_site2590]” the “gcPBM binding intensity (ln)” value was 9.34.
“ATCTAAACCTTTTGAGCACACATATATATATATATA [CACACA_site8526]” was tested, and the “gcPBM binding intensity (ln)” value was 9.41.
In the case of “ATGGGGAATAATGAATGTACACAAATAAAAAGTTGG [XGTACX_site4015]”, the “gcPBM binding intensity (ln)” value is reported as 9.25.
With “TAAAAATAAAAATAACGTACATACATACTTATATAT [XGTACX_site3745]” the “gcPBM binding intensity (ln)” value was 9.07.
For “TAATTTTTTTAAAACACACAAATATGTAAATATGTA [CACACA_site7769]”, the “gcPBM binding intensity (ln)” value was 9.11.
“ATTTTTGTGACTAAGACATGCATAAGAGTAAAGAAA [TGCATGCA_site619]” was tested, and the “gcPBM binding intensity (ln)” value was 9.23.
With “ACATATATTATATAACGTACATAACACTATTTCCTT [XGTACX_site6938]” the “gcPBM binding intensity (ln)” value was 9.53.
For “TTTTTTTTTTGTAATTGTACTTTTTTAATACTTCTA [XGTACX_site4195]”, the “gcPBM binding intensity (ln)” value was 9.29.
In the case of “TATACATATATATACACACACATATATATATATATA [CACACA_site4]”, the “gcPBM binding intensity (ln)” value is reported as 9.64.
With “TATATATATATATTCACACATAAATATATGCACCCA [CACACA_site4263]” the “gcPBM binding intensity (ln)” value was 9.3.
With “AACTTATTAAGCCCTCCACATTTCTCTACTACAACT [CACACA_negctrl_site1552]” the “gcPBM binding intensity (ln)” value was 9.46.
“TCTATTTTTCTAATTTGTACATAGCTTTGAGTTAGT [XGTACX_site8977]” was tested, and the “gcPBM binding intensity (ln)” value was 9.27.
In the case of “AGATAAAATATATACACACACATAAATACGTACAAA [CACACA_site1086]”, the “gcPBM binding intensity (ln)” value is reported as 10.1.
